In PMC4336329 (PLoS ONE, 2015):
The campaign covered roughly 310,000 compounds. About 2,200 (0.71%) showed an effect of 50% or more. The effect is printed as a negative number. The list shows a part of the results.

target: human ether-à-go-go-related gene (hERG) potassium channel (human, UniProt Q12809); assay: primary screen, population patch clamp on CHO cells stably expressing hERG
Sequence (Q12809 whole entry, looked up): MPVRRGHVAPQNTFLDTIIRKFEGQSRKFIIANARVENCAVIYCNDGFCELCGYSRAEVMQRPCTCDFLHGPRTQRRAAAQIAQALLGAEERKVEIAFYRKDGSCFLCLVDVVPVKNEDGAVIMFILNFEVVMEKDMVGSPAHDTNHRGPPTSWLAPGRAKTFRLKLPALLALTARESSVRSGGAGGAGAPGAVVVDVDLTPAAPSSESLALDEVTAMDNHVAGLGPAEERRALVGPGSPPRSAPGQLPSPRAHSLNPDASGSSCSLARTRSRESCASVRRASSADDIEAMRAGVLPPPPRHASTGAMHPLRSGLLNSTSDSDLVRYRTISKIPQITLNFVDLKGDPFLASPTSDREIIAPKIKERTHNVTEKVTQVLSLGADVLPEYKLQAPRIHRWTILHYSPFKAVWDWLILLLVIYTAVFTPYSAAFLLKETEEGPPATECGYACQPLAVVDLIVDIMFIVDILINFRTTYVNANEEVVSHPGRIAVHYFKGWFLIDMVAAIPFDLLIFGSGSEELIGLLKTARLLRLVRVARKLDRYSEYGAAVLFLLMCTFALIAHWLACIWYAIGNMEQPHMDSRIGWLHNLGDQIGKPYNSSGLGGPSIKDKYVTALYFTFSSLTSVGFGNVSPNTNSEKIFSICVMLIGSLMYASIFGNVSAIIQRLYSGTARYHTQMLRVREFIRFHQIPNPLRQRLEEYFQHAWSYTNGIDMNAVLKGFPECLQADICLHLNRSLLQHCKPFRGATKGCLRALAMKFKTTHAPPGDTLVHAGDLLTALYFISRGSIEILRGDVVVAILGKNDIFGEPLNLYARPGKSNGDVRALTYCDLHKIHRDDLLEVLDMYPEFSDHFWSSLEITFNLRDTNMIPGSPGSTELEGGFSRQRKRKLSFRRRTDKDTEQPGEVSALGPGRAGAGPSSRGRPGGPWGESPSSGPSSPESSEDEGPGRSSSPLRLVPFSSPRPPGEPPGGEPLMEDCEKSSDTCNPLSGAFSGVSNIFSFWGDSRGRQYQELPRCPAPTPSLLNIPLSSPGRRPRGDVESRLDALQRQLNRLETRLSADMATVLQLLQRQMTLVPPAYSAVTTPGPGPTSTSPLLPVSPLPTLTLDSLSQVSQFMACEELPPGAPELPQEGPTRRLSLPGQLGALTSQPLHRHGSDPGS

SMILES | hERG current change (%, negative = inhibition) at 1uM [%]
CCOc1ccc(NC(=S)N2CCN(S(=O)(=O)c3ccc(C)cc3)CC2)cc1 | 5.75
COc1ccccc1/C=C/C(=O)Nc1cccnc1 | 16.1
O=C(COC(=O)c1ccc(NS(=O)(=O)c2ccc3c(c2)OCCO3)cc1)NCC1CCCO1 (stereo not drawn) | 15.6
CCOc1ccccc1N1CCN(C(=S)Nc2ccc(S(=O)(=O)Nc3ncccn3)cc2)CC1 | 7.12
O=C(c1ccc(Br)o1)N1CCN(c2ccc(F)cc2)CC1 | 3.15
COCCOC(=O)C1=C(C)N=C2SCCC(=O)N2C1c1ccc(OC(=O)c2ccco2)cc1 (stereo not drawn) | 3.59
COc1ccc(NC(=O)COC(=O)CNS(=O)(=O)c2ccccc2)cc1OC | 8.86
Cc1cc(C)cc(Nc2ccc([N+](=O)[O-])nc2[N+](=O)[O-])c1 | 13
COc1ccc(NC2c3ncccc3C(=O)N2Cc2cccs2)cc1 (stereo not drawn) | 1.95
O=C(O)C1CCCCC1C(=O)Nc1cccc2ccccc12 (stereo not drawn) | 10.8
Cc1cc(C(=O)N/N=C/c2ccc[nH]2)no1 | 12.2
CN1C(=O)NC(c2ccc(Cl)cc2)C2=C1CC(C)(C)CC2=O (stereo not drawn) | 12.6
CCC(=O)N1CCc2cc(S(=O)(=O)N(C)c3ccc(OC)cc3OC)ccc21 | 14
O=C(Cc1ccccc1[N+](=O)[O-])NCc1ccc2c(c1)OCO2 | 4.59
COc1ccc(CNC(=O)c2cccnc2)cc1 | 7.91
O=C(c1ccco1)N1CCN(C(c2cccs2)c2sc3ncnn3c2O)CC1 (stereo not drawn) | 9.42
CC1CCN(CCNC(=S)Nc2ccc(Cl)cc2)CC1 | 0.581
O=C(Nc1ccc(O)cc1C(=O)O)c1cccs1 | 9.59
COc1ccc(S(=O)(=O)N2CCC(C(=O)NCCN3CCOCC3)CC2)cc1OC | 11
CC1CCN(S(=O)(=O)c2ccc(NC(=O)Cn3nnc(-c4ccccc4)n3)cc2)CC1 | 8.71
Cc1ccc(CNC(=O)C2CCCN(c3ncnc4c3nc3n4CCCCC3)C2)cc1 (stereo not drawn) | 0.715
COc1ccccc1-n1cc(-c2ccccc2)[nH]c1=S | 13.5
O=C(NCCNc1ccc([N+](=O)[O-])cc1)c1cccs1 | 0.701

SMILES | hERG current change (%, negative = inhibition) at 1uM [%]
COc1ccc(/C=N/OC(=O)c2ccc(Cl)cc2)c(Cl)c1OC | 1.72
Cc1ccc(-c2csc(N3N=C(c4ccccc4)/C(=C\c4ccc(N(C)C)cc4)C3=O)n2)cc1 | 6.34
COc1ccccc1NS(=O)(=O)c1cccc(NC(=O)NC2CCCCC2)c1 | 12.3
CNC(=O)CN(CCc1ccccc1)S(=O)(=O)c1ccc(OC)cc1 | 10.6
O=C(NC(Cc1ccccc1)C(=O)O)/C(=C/c1cccc(Br)c1)NC(=O)c1ccco1 (stereo not drawn) | 10.6
O=C(NCCCN1CCOCC1)c1cc2c(=O)[nH]c3ccccc3c2s1 | 10.6
COc1ccc(C(CC(=O)N2CCOCC2)C(C)C)cc1 (stereo not drawn) | 20.2
C=CC12CN(C)[C@@H]3C4CO[C@H](C[C@H]41)[C@]1(C(=O)Nc4ccccc41)[C@@H]32 (stereo partly drawn) | 11.6
Cc1cccc(NS(=O)(=O)c2ccc(NC(=O)N3CCCCC3)cc2)c1 | -0.808
CN(C)c1nc(N(C)C)nc(N(C#N)Cc2ccc(Cl)cc2)n1 | 9.72
CCN1CCN(c2ccc(S(=O)(=O)N3CCCCC3)cc2NC(=O)c2ccc(F)cc2)CC1 | -16.7
Cc1ccc(N(CC(=O)NC2CCCCC2)C(=O)CCCC(=O)Nc2ccccn2)c(C)c1 | 8.99
COc1cc(CCCN2C(=O)C(=O)NC[C@@H]2CC2CCCCC2)cc(OC)c1OC | 10.3
O=C(Oc1ccc(N2C(=O)CCC2=O)cc1)c1ccccc1Cl | 0.271
COc1ccc(C2CC(c3ccccc3)=NN2C(=O)CSc2ncccn2)cc1 (stereo not drawn) | 6.77
CCOc1ccc(OCC(=O)OCc2csc(CC(=O)Nc3ccccc3C)n2)cc1 | 11.7
COCCN(C(=S)Nc1c(C)cc(C)cc1C)C(C)c1cccs1 (stereo not drawn) | -8.8
Cc1[nH]n(C(N)=S)c(=O)c1N=Nc1cccc([N+](=O)[O-])c1C | 11.3
C=CCn1c(SCC(=O)Nc2ccc(C(=O)O)cc2)nc2sc(C)c(C)c2c1=O | 15.8
COc1cccc(/C=N/Nc2ncccc2[N+](=O)[O-])c1OC | 9.28
Cc1ccc(NC(=O)COC(=O)c2c(-c3ccccc3)noc2C)c(C)c1 | 5.79
CCOC(=O)C1=C(C)N(c2ccccc2)C(=O)/C1=C\c1cccs1 | 15.3
